Data taken from the supplement of paper PMC3334620.
Whole data set: some 33,000 sequences, median “E-score (-0.5 to 0.5)” near -0.011, cut for the highest 2% near 0.28. Some of the results follow.

These sequences were tested against T1, Gcr1 (UniProt P07261) (assay: PBM E-score (8-mer binding enrichment) (E-score (-0.5 to 0.5)); higher = stronger / more preferred TF binding; most listed sequences are background and not binding sites). Conditions: protein concentration: 100 nM; construct: GST-full length.
T1 sequence: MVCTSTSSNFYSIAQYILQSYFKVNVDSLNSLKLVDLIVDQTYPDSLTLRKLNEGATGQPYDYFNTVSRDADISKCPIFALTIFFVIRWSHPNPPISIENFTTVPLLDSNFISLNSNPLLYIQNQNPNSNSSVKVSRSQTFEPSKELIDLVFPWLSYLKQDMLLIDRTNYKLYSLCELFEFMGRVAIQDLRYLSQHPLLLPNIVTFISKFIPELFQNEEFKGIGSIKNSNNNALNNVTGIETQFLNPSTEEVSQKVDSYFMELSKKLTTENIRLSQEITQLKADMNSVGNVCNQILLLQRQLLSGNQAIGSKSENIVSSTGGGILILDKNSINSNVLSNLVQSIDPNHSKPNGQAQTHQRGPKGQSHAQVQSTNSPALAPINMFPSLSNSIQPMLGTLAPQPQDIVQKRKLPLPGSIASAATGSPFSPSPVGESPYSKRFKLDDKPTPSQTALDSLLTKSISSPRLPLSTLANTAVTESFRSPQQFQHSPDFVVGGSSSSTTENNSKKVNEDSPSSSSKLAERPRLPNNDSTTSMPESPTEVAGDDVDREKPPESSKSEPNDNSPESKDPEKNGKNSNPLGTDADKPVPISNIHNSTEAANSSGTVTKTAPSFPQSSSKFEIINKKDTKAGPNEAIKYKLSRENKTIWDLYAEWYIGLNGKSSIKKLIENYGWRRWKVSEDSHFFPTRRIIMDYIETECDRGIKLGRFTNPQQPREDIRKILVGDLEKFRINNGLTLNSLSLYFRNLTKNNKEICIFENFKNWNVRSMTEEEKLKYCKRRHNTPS
Description: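 Universal 'all 10-mer' protein binding microarrays (Agilent AMADID 015681) probed with GST-tagged S. cerevisiae TFs (full-length or DBD) made by in vitro transcription/translation (PURExpress), about 100-200 nM. Bound TF was detected with fluorescent anti-GST. Each ungapped 8-mer (which stands for itself and its reverse complement) is scored by the PBM enrichment score (E-score), a modified Wilcoxon-Mann-Whitney statistic from -0.5 to +0.5, computed with the Universal PBM Analysis Suite. Scale: above 0.35 generally sequence-specific binding.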

Sequence	PBM E-score
TACAGGTA	0.0633
AAACCGGC	0.109
GCTTGCAC	-0.1
CCTATCAC	-0.078
AGGAATAT	-0.168
ATTAGGCA	0.00576
CGAGACGA	-0.0255
GGCGCCCC	0.308
GACCTATA	0.0846
AGGCTGCA	-0.0233
ACTGAACT	-0.0849
AGTGCACT	-0.297
GGGAGAAA	-0.0481
GTGTATTA	0.187
CAGGTTGC	0.135
CCGGCTAG	-0.189
GGCCACCC	-0.142
GCAAGACC	-0.0175
CCTTCGGC	-0.142
TAGGTTGA	0.0479
ATCTGGAG	0.0569
CCGTGTGC	-0.0119
ATCAATCA	-0.0168
CGGCTGAA	-0.112
CACATTGG	-0.00213

Sequence	PBM E-score
GCGCTAGC	-0.0426
AACCCTCA	-0.104
AGCGGCCG	0.232
GGACAGCC	-0.0497
GGCCGACA	0.0543
CGCAGCCC	0.324
ATAGTAAT	-0.0398
AGACCAGG	-0.246
AGTTACAA	0.153
TCCTTACA	-0.0132
CGTCCTAC	-0.0419
AAGTGTGA	-0.314
GCCACGCA	-0.0993
ATCTGGAA	0.333
CAAGGGGG	-0.278
CCGTACAC	0.0747
GCAGTGAC	-0.258
GGCATTCA	-0.0582
GGAAAAAC	0.137
GTGCTAGA	0.108
ACACTAAG	-0.00776
TCTATGCA	-0.067
ACGAAGCC	0.428
GACCACGA	-0.0712
ATGACGTG	-0.193

Sequence	PBM E-score
CACGCGTA	-0.0238
CTGTACCA	-0.0787
AATGCTGC	-0.218
CCCATACC	0.124
GAACATCC	0.157
AGCGCAAA	-0.182
AACTAGAT	0.0667
GACGGCGC	-0.0687
TCATGCGA	-0.0623
ATTTCAAC	0.0871
CGAGGCAG	-0.193
AACTCTGC	-0.173
GGAAACTA	0.0975
ATTTCGCG	0.149
TACCTCTA	0.238
CTCCGAGA	-0.133
ACGACGGA	-0.111
CAGGGAGA	-0.223
AAGTTGGG	0.145
AACTAAGC	-0.0406
ACCAGGTG	0.0473
GAGACCCA	-0.114
GAAAATAA	0.0639
CATTGCTC	-0.193
CAGTCTTA	-0.215

Sequence	PBM E-score
GGCCCGCC	-0.0815
GTTTAGAA	0.15
GTTCATTA	0.0937
ATCTGAGC	0.124
AGAAGGAC	-0.231
CTGAGATC	-0.0584
ATTCGTTC	0.0978
GAAAACTC	-0.103
AGTTGAGC	0.0741
AGAAGGTA	0.152
AAGTCGAG	-0.13
CCACAGGG	0.0151
CTGGCGAA	-0.143
CGATGTCC	-0.0084
GGAGTTAA	-0.00026
ATCAGTGA	-0.0259
AAAATGCT	0.0483
CGTGGTCC	-0.00023
CCTATGAC	-0.0957
ATAAGAAG	0.381
ACAAGAGT	0.0659
ATGTTCAG	0.00413
CACTGTAA	-0.118
CTGACACA	-0.0736
AGGTTCTA	-0.00738

Sequence	PBM E-score
CAAGCAGC	0.324
ATCCACGA	0.0269
ATACGCCC	-0.126
GAGGGGGC	-0.229
CATTACTA	-0.187
TGCTTACA	-0.00713
ACGTATTG	-0.0581
GCACGGAC	0.041
ACGGTCTA	-0.192
GCTCCGGA	0.121
AGCAACAG	-0.0697
CGCGTCTA	0.137
TAAATCAA	0.146
GATCAGCA	-0.192
AGGATCGG	-0.104
AGACCCGC	-0.0645
ACGGATCG	-0.0656
TGAGCCCA	0.0335
ATGAGACG	-0.154
ACAGAGGA	0.101
ACCGGAGG	-0.09
AGACCCCA	0.205
CGATAGAA	0.122
CTTGGCGC	0.104
CATATTGG	0.117

Sequence	PBM E-score
AATAAAGC	-0.0355
CAGTTCGC	-0.0763
GAAATCAA	0.0443
GGAATCTA	0.357
CACTCCCC	-0.0729
CCATGGGG	0.0525
CGAGGTGA	0.00332
GAGAAGGC	0.0155
AAATAGTC	-0.0262
AGCCAATA	0.042
CACTCTGG	0.0408
CGTACTTA	-0.117
CACCACCC	-0.0857
CAACCGCA	-0.122
ATGATCTC	-0.0762
CGTGAGTA	-0.0697
AAGCTCGC	0.0111
GACCGCCA	-0.138
AACTTGGG	0.0372
CAACTAGG	0.0628
GATGCAGC	0.137
CAATTTCC	0.173
ATACATCC	-0.132
AACTTCCA	0.349
AATCCATT	0.198

Sequence	PBM E-score
AGGCCGAT	-0.0227
AGCGCTGG	0.0319
GCAGCAAC	0.227
TATGTCCA	-0.0573
ATGAACCC	0.0541
CGGGAGCA	-0.109
CACTTTGC	-0.13
GGTGCAGA	0.117
AATTGCCT	-0.0735
CCGTCTTC	-0.038
AGACCCAT	-0.152
ACGGAGAA	-0.0639
CACCAAAG	0.047
CTACCTGA	0.0704
CTCCCTGA	-0.0844
AAGCTAAC	0.137
ATATTGAG	-0.016
CAAATATC	0.0741
GTACCAGA	0.182
GATAGCTA	-0.0442
CGACTGAC	-0.135
ACGCTTCT	0.155
CCCGTACA	0.03
CAATCTTC	0.119
GTGCAGTA	-0.045

Sequence	PBM E-score
GAGCTGGA	-0.187
GCCAACAC	0.0149
ATCACTCC	-0.0513
CACGCCCC	0.149
ATACGCAG	0.281
TGGTTTAA	-0.0736
ATCTCGTG	0.0146
ATTCCCCC	-0.132
CTGGGCCC	0.0964
CCTAGTCG	-0.0382
CTACGAGC	-0.265
ACGCTGTC	-0.0601
AAGGCCTC	-0.217
ATATTTTC	0.0715
ACTCAAGA	-0.0735
CTGCACAC	0.0366
CGACGCTC	0.0463
GTTTGCAA	-0.00371
AGGTTGTC	-0.051
ATCTCTGC	-0.132
AGATAGCG	0.0872
AACGACCG	-0.184
AGTAAATA	-0.00533
AACAATGT	0.0351
AATTGGGA	0.148

Sequence	PBM E-score
AACCTGTG	0.00599
TAACGCTA	-0.0674
ATGGCTTG	-0.236
ATTTACTG	0.0775
ACACTAGT	0.0402
AATGCCCC	-0.00536
CCGCGCAA	-0.187
CGATTCGA	0.17
AATACTGC	-0.128
CAGCCGGA	0.128
TCATTCCA	-0.105
GTGCCGCA	-0.0128
CAATGGCG	-0.0196
TCGAGGCA	-0.167
AGCTCGAA	0.0664
AAGTATAA	-0.165
GCCCACAA	0.144
ACGGCACC	0.142
CATTCCTA	-0.0304
